Reference: ChEMBL document CHEMBL4888484, “Replenishing the malaria drug discovery pipeline: Screening and hit evaluation of the MMV Hit Generation Library 1 (HGL1) against asexual blood stage Plasmodium falciparum ,using a nano luciferase reporter read-out” (2022)
Hit rate of the full screen: of about 150,000 compounds, about 540 (0.36%) showed an effect of 50% or more. The list shows a part of the results.

These molecules were tested on Plasmodium falciparum (assay: Primary screen in NF54 nanoGlo assay, in single point, at 2uM, 72h; a lower Z score goes with more inhibition). Conditions: timepoint 72 hour.
Type: functional, Erythrocyte
In the case of `Cn1ccc(C(=O)N[C@@H](Cc2ccncc2)C(=O)OC(C)(C)C)n1`, the “% Inhibition” value is reported as -6% and the Z score is reported as 0.88. In the case of `Cc1nc(-c2ccncc2)nc(Nc2cn[nH]c2)c1C`, the “% Inhibition” value is reported as -7% and the Z score is reported as 0.68. In the case of `CC1(C)CN(C(=O)Nc2nc3ccccc3s2)CC[S@@+]1[O-]`, the “% Inhibition” value is reported as -7% and the Z score is reported as 0.86. For `Cc1c[nH]c(CN2CCN(c3ncccn3)CC2)c(C)c1=O`, the “% Inhibition” value was -9% and the Z score was 1.18. `C[C@H]1CN(C(=O)Nc2ccncn2)CCCO1` was tested, and the “% Inhibition” value was 14% and the Z score was -1.4. `CCc1noc(NC(C)=O)c1-c1ccc(OC)c(S(=O)(=O)NCc2ccc(C)cc2)c1` was tested, and the “% Inhibition” value was -1% and the Z score was 0.12. In the case of `CCc1cc(N2CCC[C@H](c3nnc(CO)n3C)C2)nc(CC)n1`, the “% Inhibition” value is reported as -1% and the Z score is reported as 0.09. For `C[C@@]1(C(F)F)CN(CC(=O)Nc2ccc3c(c2)CCC3)CCO1`, the “% Inhibition” value was -4% and the Z score was 0.77. `CC(C)(C)OC(=O)NC[C@H]1CCCN1c1ncc(Cl)cn1` was tested, and the “% Inhibition” value was -20% and the Z score was 2.82. For `CC(C)c1cnc(COc2ccccc2C(N)=O)o1`, the “% Inhibition” value was 5% and the Z score was -0.65. `CCC(NC(=O)N1CCC(C(=O)N(C)C)C1)C1CC1(C)C` (stereo not given) was tested, and the “% Inhibition” value was 4% and the Z score was -0.47. In the case of `Cc1ccc(S(=O)(=O)c2ncccc2CN2CCN(c3ncccn3)CC2)cc1`, the “% Inhibition” value is reported as -17% and the Z score is reported as 1.54. `COCCC1(CNS(=O)(=O)[C@H]2C[C@@H](C(=O)OC)C2)CCCC1` was tested, and the “% Inhibition” value was -33% and the Z score was 3.93. `O=C(O)c1cccnc1CN1CCC(Cc2cccc(F)c2F)CC1` was tested, and the “% Inhibition” value was -15% and the Z score was 1.65. With `O=C(Nc1nc2c(s1)CCCC2)c1cc(O)nc2ccccc12` the “% Inhibition” value was 4% and the Z score was -0.7. `Cc1ccc(S(=O)(=O)NCc2nn(C3CCCC3)c(=O)c3ccccc23)cc1` was tested, and the “% Inhibition” value was -12% and the Z score was 1.56. For `Cc1cc(NC(=O)N[C@H](CCO)c2ccccc2)ccc1N(C)C`, the “% Inhibition” value was -26% and the Z score was 2.36. In the case of `CCCCc1noc(CN2C(=O)CN(C=Cc3ccccc3)C2=O)n1`, the “% Inhibition” value is reported as -21% and the Z score is reported as 1.9. For `CCOC(=O)C1CCCN(C(=O)CC2(c3ccccc3)CC(=O)N(CCc3ccccn3)C2=O)C1` (stereo not given), the “% Inhibition” value was 11% and the Z score was -1.45. In the case of `O=S(=O)(NC1(c2ccccc2F)COC1)c1cnc2n1CCC2`, the “% Inhibition” value is reported as -1% and the Z score is reported as 0.12. With `COc1cccc(CO[C@H]2CN(CC(C)C)C(=O)CN(C(=O)c3cscn3)C2)c1` the “% Inhibition” value was -16% and the Z score was 2.09. For `CNC(=O)Nc1ccccc1Br`, the “% Inhibition” value was -11% and the Z score was 2.3. With `N#C[C@@](CCc1ccccc1)(c1ccccc1)c1cnccn1` the “% Inhibition” value was 13% and the Z score was -1.53. `O=C1CCC2(CCNCC2)CN1[C@@H](Cc1ccccc1)c1ccccc1` was tested, and the “% Inhibition” value was 0% and the Z score was -0.04. With `CC(=O)Nc1ccc(-c2cnc(C3CCOCC3)o2)cn1` the “% Inhibition” value was -6% and the Z score was 0.67. `CN(CCCn1ccnc1)C(=O)c1ccnc(N(C)C)c1` was tested, and the “% Inhibition” value was -12% and the Z score was 1.13. For `COc1cc(Cl)c(Cl)cc1NC(=O)NCCCO`, the “% Inhibition” value was 6% and the Z score was -0.63. With `N#CCC1(COC(=O)c2cnn(-c3ccccc3)n2)CC1` the “% Inhibition” value was -15% and the Z score was 2.82. With `Cn1cccc1C(=O)N1CCC[C@H](CCc2noc(-c3cccnc3)n2)C1` the “% Inhibition” value was 5% and the Z score was -0.77. With `Cn1ncnc1Cn1cnn(C(C)(C)C)c1=O` the “% Inhibition” value was -1% and the Z score was 0.09. With `CCOc1cc([C@H]2CC(=O)Nc3c(S(=O)(=O)c4ccc(Cl)cc4)csc32)ccc1OC(C)C` the “% Inhibition” value was -1% and the Z score was 0.13. For `Cc1nc2ccccc2n1CCNC(C)C1CN(C)CCN1C` (stereo not given), the “% Inhibition” value was -10% and the Z score was 1.28. For `CS(=O)(=O)c1ccc(-c2nnc(NC(=O)c3cccc4ccccc34)o2)cc1`, the “% Inhibition” value was -19% and the Z score was 2.44. For `CCn1cc(C(=O)N2C[C@@H]3C[C@H]2CN3c2ccccc2)nn1`, the “% Inhibition” value was -9% and the Z score was 1.48. In the case of `Cc1cc(NCCc2noc(C(C)C)n2)cc(C)n1`, the “% Inhibition” value is reported as -9% and the Z score is reported as 1. With `Cc1ccc(C(C)C)cc1OC(=O)c1ccc2nccnc2c1` the “% Inhibition” value was -12% and the Z score was 1.74. `CCC(C)C(NCCC(=O)c1ccc(Cl)cc1)C(=O)O` (stereo not given) was tested, and the “% Inhibition” value was -10% and the Z score was 1.57. In the case of `C[C@H](NC(=O)N1CCC2(CC1)NC(=O)CO2)c1ccsc1`, the “% Inhibition” value is reported as 3% and the Z score is reported as -0.55. In the case of `O=C(Cc1ccsc1)N[C@@H]1COCC[C@@H]1OCc1ccccc1`, the “% Inhibition” value is reported as 6% and the Z score is reported as -0.74. With `C[C@H](C(=O)NCc1nnnn1C)C(C)(C)C` the “% Inhibition” value was -7% and the Z score was 0.8. In the case of `O=C1CCCN1CCCN1C(=O)[C@@H]2C[C@@H](O)CN2C2(CN(Cc3ccccc3F)C2)C1=O`, the “% Inhibition” value is reported as -2% and the Z score is reported as 0.28. In the case of `Cc1ncsc1CCS(=O)(=O)N1CC[C@H](n2cc(Cl)cn2)C1`, the “% Inhibition” value is reported as -14% and the Z score is reported as 1.81. `O=C(CN1CCOC1=O)N1CCC(c2nnc(-c3ccc(F)cc3)o2)CC1` was tested, and the “% Inhibition” value was -12% and the Z score was 2.3. `O=C(CN(CCC(F)(F)F)C1CCC1)N1CCCCC1` was tested, and the “% Inhibition” value was -6% and the Z score was 0.81. In the case of `CC(C)C(=O)Nc1ccc(CNC(=O)C(C)(C)S(=O)(=O)c2ccc(Br)cc2)cc1`, the “% Inhibition” value is reported as -7% and the Z score is reported as 0.82. For `O=C(N1CCc2oncc2C1)C1(c2ccccc2)CCOCC1`, the “% Inhibition” value was -8% and the Z score was 1.3. With `CC(=O)Nc1ccc(S(=O)(=O)N2CCC[C@H]2c2cc(C)no2)cc1` the “% Inhibition” value was -2% and the Z score was 0.23. For `CC(C)NC(=O)N1C[C@@H]2Oc3ccc(C(F)(F)F)cc3C(=O)N(C)[C@@H]2C1`, the “% Inhibition” value was -11% and the Z score was 1.7. With `Cc1nc(CCCNC(=O)[C@@H]2CCCO2)sc1C` the “% Inhibition” value was 3% and the Z score was -0.43. For `Cc1ccc(CN2Cc3ccccc3N(CC(=O)O)C2=O)cc1`, the “% Inhibition” value was 14% and the Z score was -2. With `O=C(NC[C@H]1C[C@@H]1c1ccccc1)N1CCC(c2ccon2)CC1` the “% Inhibition” value was -10% and the Z score was 0.99. In the case of `COc1ccccc1CC(=O)NCc1ccccc1CN1CCCC[C@@H]1C`, the “% Inhibition” value is reported as 0% and the Z score is reported as 0.05. For `C#CC[C@H](NC(=O)Cc1cc(F)c(F)cc1F)C(N)=O`, the “% Inhibition” value was -4% and the Z score was 0.86. `N[C@H]1[C@@H]2CC[C@H]1CN(C(=O)CCc1cccc(Cl)c1)C2` was tested, and the “% Inhibition” value was -3% and the Z score was 0.52. In the case of `CCCn1cc(C(=O)N2CC[C@H](c3cccnc3OC)C2)cn1`, the “% Inhibition” value is reported as -17% and the Z score is reported as 2.15. `O=C(O)CCc1cc2n(n1)CCN(Cc1cc(C3CCCCC3)no1)C2` was tested, and the “% Inhibition” value was -3% and the Z score was 0.55. For `Clc1ccc2c(-c3ccccc3)c3c(nc2c1)Cc1ccccc1-3`, the “% Inhibition” value was -7% and the Z score was 0.88. For `Cc1cccc([C@H](C)OC(=O)CN(C)S(=O)(=O)c2cccnc2)c1`, the “% Inhibition” value was -9% and the Z score was 1.61. For `CC(C)(C)OC(=O)N1C[C@@H]2CCCN(C(=O)NCC(F)F)[C@@H]2C1`, the “% Inhibition” value was -8% and the Z score was 1.54. In the case of `C=CCc1cc(C(=O)NCc2n[nH]c(=O)[nH]2)ccc1OC`, the “% Inhibition” value is reported as -12% and the Z score is reported as 1.25. With `Cc1ccc(CN2CCCN(C(=O)c3cnsn3)CC2)cc1` the “% Inhibition” value was 8% and the Z score was -1. For `O=C1Nc2ccc(-c3ccccc3F)cc2C(=O)N2CCN(C(=O)C3CCNCC3)C[C@H]12`, the “% Inhibition” value was -1% and the Z score was 0.17. For `CC(C)N(C)C(=O)Cc1ccc(N)cc1`, the “% Inhibition” value was -13% and the Z score was 1.23. With `Cc1ccccc1CN1CCCN([C@@H](C)C(=O)N2CCOCC2)CC1` the “% Inhibition” value was -12% and the Z score was 2.21. In the case of `CC(C)[C@@H](O)C(=O)N1CCc2onc(-c3cccc4ccccc34)c2C1`, the “% Inhibition” value is reported as -17% and the Z score is reported as 2.13. With `CN(CC(=O)OC1CCCCCC1)S(=O)(=O)c1cccnc1` the “% Inhibition” value was 8% and the Z score was -0.79. For `CCCN(CC)c1ccc(C(=O)O[C@H]2C(=O)OCC2(C)C)cc1`, the “% Inhibition” value was -6% and the Z score was 0.75. `CC(C)N(CCOCCO)C(=O)Nc1ccc(F)cc1C#N` was tested, and the “% Inhibition” value was 13% and the Z score was -1.64. With `N#Cc1c(F)cccc1NCc1csc(C2CC2)n1` the “% Inhibition” value was -8% and the Z score was 1.16. For `COc1ccc(CN(C)C(=O)[C@H]2CCN(C)C(=O)C2)c(OC)c1`, the “% Inhibition” value was -11% and the Z score was 1. With `O=S(=O)(c1ccccc1OCC1CC1)N1CC(CO)C1` the “% Inhibition” value was -3% and the Z score was 0.37. For `O=C(O)c1ccc(CN2CC[C@@](O)(Cc3ccc(F)cc3)C2)cc1Cl`, the “% Inhibition” value was -6% and the Z score was 0.65. `Nc1c2c(-c3ccccc3F)nc(N3CCN(c4ccccc4)CC3)nc2nn1-c1ccc(Cl)cc1` was tested, and the “% Inhibition” value was -2% and the Z score was 0.26. For `COc1ccc(C(=O)N2CC[C@H](c3nc(-c4cccn4C)no3)C2)c(OC)c1`, the “% Inhibition” value was -12% and the Z score was 1.73. For `FC1(F)Oc2cccc(-c3ccc(CN4CCCC4)cn3)c2O1`, the “% Inhibition” value was -2% and the Z score was 0.2. `Cn1cccc1-c1noc(CNC(=O)c2ccc(=O)[nH]c2)n1` was tested, and the “% Inhibition” value was -21% and the Z score was 2.64. For `CCn1cc([C@@H]2CN(C(=O)Cc3csc(NC(=O)C(C)C)n3)CCO2)cn1`, the “% Inhibition” value was -5% and the Z score was 0.88. In the case of `Cc1ncccc1C(=O)N1c2ccccc2C[C@H]1c1nc(C2CC2)no1`, the “% Inhibition” value is reported as -5% and the Z score is reported as 0.94. `COCCN1CCC[C@@]2(CCN(Cc3cccc4cccnc34)C2)C1` was tested, and the “% Inhibition” value was -18% and the Z score was 2.37. In the case of `CC(C)[C@@H]1N(C(=O)c2ccnn2C(C)C)CC12CCC2`, the “% Inhibition” value is reported as 8% and the Z score is reported as -1.11. In the case of `CCN(CCN(C)C)C(=O)Nc1ccc(OC(F)F)cc1C`, the “% Inhibition” value is reported as 0% and the Z score is reported as -0.05. In the case of `CCCn1c(=O)cc(-c2ccccc2)c2ccc(OCC(=O)NCC3CC3)cc21`, the “% Inhibition” value is reported as 8% and the Z score is reported as -0.91. With `CC(C)Oc1ccc(-c2ccc(NC(=O)N(C)Cc3cn(C)nn3)c(F)c2)cc1` the “% Inhibition” value was 8% and the Z score was -0.91. In the case of `C[C@H](NC(=O)C(C)(C)S(C)(=O)=O)c1ccc(Cl)cn1`, the “% Inhibition” value is reported as -11% and the Z score is reported as 1.63. `COC1CCN(C[C@H]2CCCCCN2C(=O)Nc2ccccc2)CC1` was tested, and the “% Inhibition” value was -5% and the Z score was 0.83.
